# Measured values: the supplement of paper PMC12217912
# Some of the results follow. The full chains were built here from the parent and the listed change. Inactive controls read about 0.05.
# B1: TEV protease; numbered along this chain (parent)
# chain: MGESLFKGPRDYNPISSSICHLTNESDGHTTSLYGIGFGPFIITNKHLFRRNNGTLVVQSLHGVFKVKDTTTLQQHLVDGRDMIIIRMPKDFPPFPQKLKFREPQREERICLVTTNFQTKSMSSMVSDTSCTFPSGDGIFWKHWIQTKDGQCGSPLVSTRDGFIVGIHSASNFTNTNNYFTSVPKNFMELLTNQEAQQWVSGWRLNADSVLWGGHKVFMVKPEEPFQPVKEATQL
# Variants of: B1
# Test: raw area under fraction-flipped curve 0-4 h after induction (AUC4h, not background-subtracted), DNA-recorder readout of cleavage of the substrate (dimensionless); higher = more cleavage of the substrate by the protease variant
# Details: temperature: 34 °C; time window: 0-4 h after rhamnose induction
# Description: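 In vivo DNA recorder in E. coli TOP10(DE3) ΔrhaA at 34 °C. Each TEVp single-site mutant (parent TEVp 0) is paired with a single-site variant of the 7-mer TEVs (canonical ENLYFQ|S). The substrate sits between flexible linkers in a Bxb1-sfGFP-TEVs-SsrA fusion, so cleavage stabilises Bxb1 and speeds flipping of a recombination array, read by NGS. The value is the raw area under the fraction-flipped curve over 0-4 h after rhamnose induction (AUC4h), with ≥20 reads per time point. It is not background-subtracted; inactive controls average about 0.047.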
# 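Also: Bxb1 expression induced with 0.2% (w/v) L-rhamnose at OD600 near 0.5, cultures sampled hourly, flipped fraction per protease–substrate barcode pair counted by paired-end Illumina sequencing.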
Variant,area with substrate ENLAFQS,area with substrate ENLCFQS,area with substrate ENLDFQS,area with substrate ENLEFQS,area with substrate ENLFFQS,area with substrate ENLGFQS,area with substrate ENLHFQS,area with substrate ENLIFQS,area with substrate ENLKFQS,area with substrate ENLLFQS,area with substrate ENLMFQS,area with substrate ENLNFQS,area with substrate ENLQFQS,area with substrate ENLRFQS,area with substrate ENLSFQS,area with substrate ENLVFQS,area with substrate ENLWFQS,area with substrate ENLPFQS
MGESLFKGPRDYNPISSSICHLTNESDGHTTSLYGIGFGPFIITNKHLCRRNNGTLVVQSLHGVFKVKDTTTLQQHLVDGRDMIIIRMPKDFPPFPQKLKFREPQREERICLVTTNFQTKSMSSMVSDTSCTFPSGDGIFWKHWIQTKDGQCGSPLVSTRDGFIVGIHSASNFTNTNNYFTSVPKNFMELLTNQEAQQWVSGWRLNADSVLWGGHKVFMVKPEEPFQPVKEATQL [F49C],0.0568,0.067,0.0619,0.0367,0.0663,0.07,0.0605,0.0614,0.0532,0.0219,0.0455,0.0567,0.0549,0.0613,0.043,0.0698,0.0536,
MGESLFKGPRDYNPISSSICHLTNESDGHTTSLYGIGFGPFIITNKHLFRLNNGTLVVQSLHGVFKVKDTTTLQQHLVDGRDMIIIRMPKDFPPFPQKLKFREPQREERICLVTTNFQTKSMSSMVSDTSCTFPSGDGIFWKHWIQTKDGQCGSPLVSTRDGFIVGIHSASNFTNTNNYFTSVPKNFMELLTNQEAQQWVSGWRLNADSVLWGGHKVFMVKPEEPFQPVKEATQL [R51L],0.0808,0.0657,0.0631,,0.0704,0.0515,0.0512,0.0812,0.0689,,0.0755,0.0644,0.0726,,0.0572,0.0807,0.0567,0.0552
MGESLFKGPRDYNPISSSICHLTNESDGHTTSLYGIGFGPFIITNKHLFRRNRGTLVVQSLHGVFKVKDTTTLQQHLVDGRDMIIIRMPKDFPPFPQKLKFREPQREERICLVTTNFQTKSMSSMVSDTSCTFPSGDGIFWKHWIQTKDGQCGSPLVSTRDGFIVGIHSASNFTNTNNYFTSVPKNFMELLTNQEAQQWVSGWRLNADSVLWGGHKVFMVKPEEPFQPVKEATQL [N53R],0.0564,,0.146,0.0693,0.07,,0.0534,0.091,0.0738,0.0732,0.0737,0.0663,0.0644,0.0742,0.0624,0.0664,0.0696,0.0589
MGESLFKGPRDYNPISSSICHLTNESDGHTTSLYGIGFGPFIITNKHLFRRNTGTLVVQSLHGVFKVKDTTTLQQHLVDGRDMIIIRMPKDFPPFPQKLKFREPQREERICLVTTNFQTKSMSSMVSDTSCTFPSGDGIFWKHWIQTKDGQCGSPLVSTRDGFIVGIHSASNFTNTNNYFTSVPKNFMELLTNQEAQQWVSGWRLNADSVLWGGHKVFMVKPEEPFQPVKEATQL [N53T],0.0716,0.0686,0.0643,0.0542,0.0668,,0.0649,,0.0748,0.0641,,0.0646,0.0465,,0.0655,0.0661,,
MGESLFKGPRDYNPISSSICHLTNESDGHTTSLYGIGFGPFIITNKHLFRRNNNTLVVQSLHGVFKVKDTTTLQQHLVDGRDMIIIRMPKDFPPFPQKLKFREPQREERICLVTTNFQTKSMSSMVSDTSCTFPSGDGIFWKHWIQTKDGQCGSPLVSTRDGFIVGIHSASNFTNTNNYFTSVPKNFMELLTNQEAQQWVSGWRLNADSVLWGGHKVFMVKPEEPFQPVKEATQL [G54N],0.051,,0.0663,0.0592,0.0673,,0.0558,0.0614,0.0588,0.0469,,0.0563,0.0552,0.0511,0.0512,0.067,,0.0734
MGESLFKGPRDYNPISSSICHLTNESDGHTTSLYGIGFGPFIITNKHLFRRNNTTLVVQSLHGVFKVKDTTTLQQHLVDGRDMIIIRMPKDFPPFPQKLKFREPQREERICLVTTNFQTKSMSSMVSDTSCTFPSGDGIFWKHWIQTKDGQCGSPLVSTRDGFIVGIHSASNFTNTNNYFTSVPKNFMELLTNQEAQQWVSGWRLNADSVLWGGHKVFMVKPEEPFQPVKEATQL [G54T],0.0609,,0.0799,0.0545,0.0645,,0.0485,0.0592,0.0628,0.0555,0.0671,0.0573,0.0551,,0.0543,,0.0608,0.0624
MGESLFKGPRDYNPISSSICHLTNESDGHTTSLYGIGFGPFIITNKHLFRRNNGYLVVQSLHGVFKVKDTTTLQQHLVDGRDMIIIRMPKDFPPFPQKLKFREPQREERICLVTTNFQTKSMSSMVSDTSCTFPSGDGIFWKHWIQTKDGQCGSPLVSTRDGFIVGIHSASNFTNTNNYFTSVPKNFMELLTNQEAQQWVSGWRLNADSVLWGGHKVFMVKPEEPFQPVKEATQL [T55Y],0.0631,,0.0579,0.0646,0.0791,0.0606,0.0689,0.0678,0.0815,0.0723,0.0708,,0.0625,,0.0711,,0.0659,0.0583
MGESLFKGPRDYNPISSSICHLTNESDGHTTSLYGIGFGPFIITNKHLFRRNNGTLVKQSLHGVFKVKDTTTLQQHLVDGRDMIIIRMPKDFPPFPQKLKFREPQREERICLVTTNFQTKSMSSMVSDTSCTFPSGDGIFWKHWIQTKDGQCGSPLVSTRDGFIVGIHSASNFTNTNNYFTSVPKNFMELLTNQEAQQWVSGWRLNADSVLWGGHKVFMVKPEEPFQPVKEATQL [V58K],0.0462,0.0541,0.0495,,0.0557,,,0.053,0.0678,,,,,,0.0348,0.0574,,
MGESLFKGPRDYNPISSSICHLTNESDGHTTSLYGIGFGPFIITNKHLFRRNNGTLVVYSLHGVFKVKDTTTLQQHLVDGRDMIIIRMPKDFPPFPQKLKFREPQREERICLVTTNFQTKSMSSMVSDTSCTFPSGDGIFWKHWIQTKDGQCGSPLVSTRDGFIVGIHSASNFTNTNNYFTSVPKNFMELLTNQEAQQWVSGWRLNADSVLWGGHKVFMVKPEEPFQPVKEATQL [Q59Y],0.106,0.0611,0.0495,,0.101,0.0703,0.0636,,0.0868,0.0654,0.127,0.0918,0.0692,0.0714,0.0617,0.084,0.0572,0.0466
